Measurements from PMC4336329 (PLoS ONE, 2015).
About 2,200 (0.71%) of roughly 310,000 compounds showed an effect of 50% or more. The effect is printed as a negative number. The list shows a part of the results.

molecular target: human ether-à-go-go-related gene (hERG) potassium channel (human, UniProt Q12809); assay: primary screen, population patch clamp on CHO cells stably expressing hERG
Sequence (Q12809 whole entry, looked up): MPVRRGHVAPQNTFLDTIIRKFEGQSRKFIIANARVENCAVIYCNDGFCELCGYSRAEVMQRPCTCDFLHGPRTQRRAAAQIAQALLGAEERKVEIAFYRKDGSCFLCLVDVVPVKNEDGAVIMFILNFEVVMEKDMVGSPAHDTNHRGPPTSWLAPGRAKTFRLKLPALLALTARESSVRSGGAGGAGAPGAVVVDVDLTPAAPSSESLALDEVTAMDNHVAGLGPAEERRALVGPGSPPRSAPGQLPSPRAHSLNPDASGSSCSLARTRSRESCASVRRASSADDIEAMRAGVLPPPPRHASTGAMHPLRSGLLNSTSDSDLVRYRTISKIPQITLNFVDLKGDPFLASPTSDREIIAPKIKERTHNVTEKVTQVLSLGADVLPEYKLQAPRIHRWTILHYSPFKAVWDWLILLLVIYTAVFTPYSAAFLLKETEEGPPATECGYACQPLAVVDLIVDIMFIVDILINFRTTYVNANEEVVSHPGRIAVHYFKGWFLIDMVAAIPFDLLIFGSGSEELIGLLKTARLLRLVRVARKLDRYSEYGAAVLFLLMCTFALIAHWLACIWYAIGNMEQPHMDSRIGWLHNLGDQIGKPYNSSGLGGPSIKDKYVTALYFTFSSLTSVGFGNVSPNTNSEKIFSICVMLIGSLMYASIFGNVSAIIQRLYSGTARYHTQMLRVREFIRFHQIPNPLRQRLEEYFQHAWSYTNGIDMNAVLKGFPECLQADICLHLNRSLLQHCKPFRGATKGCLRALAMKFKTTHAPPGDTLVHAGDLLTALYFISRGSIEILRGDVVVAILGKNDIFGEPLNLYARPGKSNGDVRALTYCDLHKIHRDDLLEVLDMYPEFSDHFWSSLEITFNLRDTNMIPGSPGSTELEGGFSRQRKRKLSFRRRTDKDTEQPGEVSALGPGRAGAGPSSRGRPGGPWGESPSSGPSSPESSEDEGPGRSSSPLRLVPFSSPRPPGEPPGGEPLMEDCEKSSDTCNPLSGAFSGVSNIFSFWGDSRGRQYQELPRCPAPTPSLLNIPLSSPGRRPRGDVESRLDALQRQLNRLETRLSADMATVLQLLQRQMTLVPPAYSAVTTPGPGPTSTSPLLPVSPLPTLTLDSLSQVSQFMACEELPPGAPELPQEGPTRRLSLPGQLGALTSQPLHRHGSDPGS

| SMILES | hERG current change (%, negative = inhibition) at 1uM [%] |
| --- | --- |
| CN(C(=O)Cn1c(=O)oc2ccccc21)C1CCCCC1 | 3.61 |
| O=C(NCCCn1ccnc1)c1cc2ccccc2oc1=O | 4.74 |
| COc1cc(C(=O)NCc2ccncc2)cc(Br)c1OCc1ccccc1 | 13.6 |
| CCc1ccc2c(c1)cc(CN(Cc1ccco1)C(C)=O)c1nnnn12 | -12.3 |
| CC1(C)CC(NC(=O)COc2ccc3ccc(=O)oc3c2)CC(C)(C)N1 | 13.6 |
| Cc1nc2c3ccccc3n(Cc3ccccc3F)c2s1 | 3.13 |
| COC(=O)c1ccc(CNC(=O)CSc2nc3ccccc3[nH]2)cc1 | 2.3 |
| O=C(NCC1CCCO1)c1cc(-c2ccccc2F)no1 (centres unmarked) | 27.5 |
| COC(=O)c1ccc(NC(=O)Cn2nc(SC)n(N)c2=S)cc1 | 16.6 |
| NC(=O)c1ccccc1NS(=O)(=O)c1ccccc1 | 0.164 |
| COc1ccccc1NC(=O)Nc1cccc(C)n1 | 5.95 |
| Cc1cc(/C=C(/C#N)C(=O)Nc2ccccc2)c(C)n1-c1cccnc1 | -11.6 |
| O=C(COC(=O)c1ccc(O)cc1O)c1ccc2c(c1)OCO2 | 10.7 |
| CC1(C)CC(CCNCc2ccc3c(c2)OCO3)(Cc2ccccc2)CCO1.Cl (centres unmarked) | -6.23 |
| CCc1nnc(NS(=O)(=O)c2ccc(NC(=O)c3ccc(Br)cc3)cc2)s1 | 11.2 |
| COc1ccc(N2C(=O)CC(N(CCc3ccc(S(N)(=O)=O)cc3)C(=S)Nc3ccccc3)C2=O)cc1 (centres unmarked) | 6.04 |
| O=C(c1cnn(C(=O)c2ccc(O)cc2)c1)c1ccccc1O | 11.7 |
| Cc1ccc(NC(=O)CCSc2nnc(Cc3ccccc3)o2)cc1 | 3.96 |
| CCC(=O)n1nc(-c2ccc(Cl)cc2)nc1N | -0.583 |
| Nc1[nH]ncc1-c1ccc(Cl)cc1 | 13.2 |
| CC1CCN(C(=O)CSc2nc3ncccc3[nH]2)CC1 | 12.1 |
| CC1CCCCN1C(=O)CCn1c(=S)oc2ccccc21 (centres unmarked) | 10.8 |
| COc1ccc(/C=N/N2C(=O)C3C4C=CC(C4)C3C2=O)cc1[N+](=O)[O-] (centres unmarked) | 4.78 |

| SMILES | hERG current change (%, negative = inhibition) at 1uM [%] |
| --- | --- |
| O=C(CCn1c(=O)c2sccc2n(CC(=O)OCc2ccccc2)c1=O)NCc1ccccc1 | -1.57 |
| O=C(O)C1CCCCC1C(=O)Nc1cccc(Br)c1 (centres unmarked) | 6.34 |
| NNc1n[nH]c(=S)n1N | 14.1 |
| O=C(Nc1nc(-c2ccc(S(=O)(=O)N3CCCCCC3)cc2)cs1)c1ccccc1 | 3.52 |
| CCc1ccc2c(c1)C(c1cccs1)=NNC(c1cccnc1)=N2 | -4.28 |
| CC1CCCCC1NC(=O)c1cc(=O)[nH]c2ccccc12 (centres unmarked) | 20.8 |
| Cc1ccc(NC(=O)COc2cccc3ccccc23)c(O)c1 | 11.9 |
| O=C1/C(=C\c2ccc3ccccc3c2)CCCc2ccccc21 | 0.188 |
| CCn1cnc2cc(NCc3ccc(OC)cc3)ccc21 | -17.5 |
| COc1cccc(C(c2c(O)nc(SC)n(C)c2=O)c2c(O)nc(SC)n(C)c2=O)c1 | 4.95 |
| O=C(CCn1c(=O)c2ccccc2n(CC(=O)N2CCN(c3ccccc3)CC2)c1=O)NCc1ccco1 | -1.01 |
| COc1cc(N2CCCC2)ccc1[N+](=O)[O-] | 6.12 |
| C/C(=N\NC(=O)c1cccnc1)c1nnn(-c2nonc2N)c1C | 1.64 |
| O=C(O)c1ccccc1N1C(=O)C2C3c4ccccc4C(Br)(c4ccccc43)C2C1=O (centres unmarked) | 11.4 |
| Cc1ccc(C(=O)N2CCOCC2)cc1S(=O)(=O)Nc1cccc(C)c1C | -3.16 |
| COc1ccc(/C=N/Nc2nc(-c3cccc(S(=O)(=O)N4CCCC4)c3)cs2)cc1OC | 18.1 |
| CCOC(CNC(=O)CCc1c(C)nc2nc(C)nn2c1C)OCC | 15.1 |
| CCC1Oc2ccccc2N(CC(=O)NCc2cccs2)C1=O (centres unmarked) | 12.4 |
| COc1cc(NC(=O)c2ccc3c(c2)OCO3)ccc1NC(=O)c1ccco1 | 15.2 |
| O=C(/C=C/c1cc2c(cc1Br)OCO2)NCc1ccc(Cl)cc1 | 10.6 |
| O=c1[nH]c(/C(Cl)=C/c2c(F)cccc2Cl)nc2cc(Cl)ccc12 | 2.15 |
| CCCC(C(=O)NC(C)(C)C)N(CC1CCCO1)C(=O)c1snc(C(N)=O)c1N (centres unmarked) | 6.13 |
| COc1ccc(-n2nc3c(c2NC(=O)c2ccc(S(=O)(=O)N4CCOCC4)cc2)CS(=O)(=O)C3)cc1 | 17 |

| SMILES | hERG current change (%, negative = inhibition) at 1uM [%] |
| --- | --- |
| COc1ccccc1C(CNC(=O)C(C)Oc1ccc(Br)cc1)N1CCCC1 (centres unmarked) | 3.99 |
| Cc1ccc(S(=O)(=O)C(CCC(=O)N2CCOCC2)S(=O)(=O)c2ccc(C)cc2)cc1 | 8.7 |
| COc1cc(CCN2C(=O)N[C@@H](CCc3ccccc3)C(C(C)=O)=C2C)cc(OC)c1OC | -1.33 |
| Cc1sc2ncnc(N/N=C/c3ccc(O)cc3)c2c1C | 6.57 |
| COc1ccccc1Sc1nc(-c2ccccc2)ncc1OC | 16.7 |
| Br.Cc1ccc(N2Cc3ccccc3C2=N)cc1[N+](=O)[O-] | 7.8 |
| Clc1ccc(-n2nnc(-c3nccs3)n2)cc1Cl | 17.8 |
| CC(=O)Nc1ccc(NC(=O)CCC(=O)Oc2ccc(C)cc2)cc1 | 16.3 |
| N#Cc1ccc(OCC(=O)Nc2ccccc2NS(=O)(=O)c2cccs2)cc1 | 8.92 |
| O=C(/C=C/C=C/c1ccccc1)CC1(O)C(=O)Nc2ccccc21 (centres unmarked) | 11 |
| COc1cc(OC)cc(C(=O)OCC(=O)NC2CCCCCC2)c1 | 6.3 |
| Cc1ccc(SC(C)C(=O)NC2CC2)cc1 (centres unmarked) | 20.1 |
| Cc1ccc(NC(=O)COC(=O)Cn2cnc3ccccc32)cc1S(=O)(=O)N(C)C | 1.93 |
| O=C(NNc1cc(Br)c(O)c(Br)c1)c1ccccc1 | 4.03 |
| CN(C(=O)COC(=O)c1ccc(C#N)cc1)c1ccccc1 | 6.48 |
| Cc1cc(C)cc(-n2nc(C)cc2N)c1 | -7.91 |
| CC(=O)c1c(C)[nH]c(C(=O)OCc2ccc([N+](=O)[O-])cc2)c1C | 5.66 |
| O=C(Cc1cccs1)NCc1ccccc1Br | 15.2 |
| O=C(Nc1nc2ccccc2[nH]1)c1ccccc1O | 19.2 |
| COC(=O)C1=C(C)Nc2c(c(=O)n(C)c(=O)n2C)C1c1ccncc1 (centres unmarked) | 22.4 |
| COc1ccc(OCC(=O)NCc2cccnc2)cc1 | 6.2 |
| COc1ccc(CNC(=O)C(C)c2ccc([N+](=O)[O-])cc2)cc1 (centres unmarked) | 7.69 |
| Cc1ccc(C)c(NC(=O)CN2C(=O)CC(C)S(=O)(=O)c3ccccc32)c1 (centres unmarked) | 6.33 |

| SMILES | hERG current change (%, negative = inhibition) at 1uM [%] |
| --- | --- |
| COc1ccc(-n2c(SCC(=O)Nc3ccccc3OC)nc(O)c(Cc3ccccc3)c2=O)cc1 | 4.38 |
| Cc1cc(C)nc(NNC(=O)c2ccccc2O)n1 | 16.3 |
| CCN1CCN(CCCNC(=O)CNC(=O)c2nn(-c3ccc(OC)cc3)c(=O)c3ccccc23)CC1 | 12.9 |
| CC(C)NS(=O)(=O)c1ccc(NC(=O)CCc2ccccc2)cc1 | -10.5 |
| Cc1ccc2oc3nc(C)c(C(=O)Nc4cccc(C(F)(F)F)c4)cc3c(=O)c2c1 | 3.46 |
| COC(=O)C1=C(c2ccc(C(C)=O)cc2)C[C@@H]2CC[C@H]1N2C(=O)N1CCCC1 | 10.2 |
| Cc1nc(N[C@@H](Cc2ccccc2)C(=O)O)c2oc3ccccc3c2n1 | 7.68 |
| CCCCNC(=O)OCCSCCS(=O)(=O)c1ccc(Cl)cc1 | 7.82 |
| CC(C)c1ccc(/C=C2\CC/C(=C\C=N\N(C)C)C2=O)cc1 | 10.2 |
| Cc1cc(S(=O)(=O)Nc2c(NC3CCCCC3)c3ccccc3oc2=O)ccc1F | 9.34 |
| Cc1c(C(=O)c2ccc(N(C)C)cc2)c2ccccn2c1CCC#N | 14.7 |
| CC1=CC(C)(C)N2C(=O)C3(C(C#N)=C(N)OC4=C3C(=O)CC(C)(C)C4)c3cc(C)cc1c32 (centres unmarked) | 7.1 |
| CCc1ccc(NC(=O)C/C(C)=N/NC(=O)OCc2ccc(OC)cc2)cc1 | -10.1 |
| C=CCNC(=S)NNC(=O)c1ccc(OC(C)C)cc1 | 23 |
| Cc1ccc(-c2nc(-c3ccc(Cl)cc3)sc2CC(=O)O)c(C)c1 | 18.3 |
| CC1CC(C)CN(C(=O)COC(=O)Cc2ccc(Cl)cc2)C1 (centres unmarked) | 11.7 |
| C/C(=N/OC(=O)c1ccc(C)cc1)c1ccc(N2C(=O)C3CCCCC3C2=O)cc1 (centres unmarked) | 16.6 |
| Cc1ccc(C(=O)O)cc1N1C(=O)CCCC1=O | 10.7 |
| CCOc1ccc(C(=O)NC2CCN(CC(=O)NCc3cccs3)CC2)cc1 | 0.829 |
| CCOC(=O)c1c(NCc2ccc3c(c2)OCO3)c2ccccc2[nH]c1=O | 0.983 |
